The other results are listed elsewhere or left out.
What follows are sequences tested against T1, OsWOX13 (Oryza sativa, UniProt Q5QMM3 1-267) (assay: protein-binding microarray (RPBM); PBS, 2% BSA, 51.3 ng/ul salmon testes DNA, 50 uM zinc acetate, 200 nM TF, 25 C, 1 h; high values mean tight binding). Conditions: protein: recombinant; tags: N-terminal polyhistidine and DsRed monomer fusion (pET32a); label: CyDye5-dUTP incorporated in the synthesized complementary strand; 3' TTTTT single-stranded linker to array surface; dsDNA, one strand shown.
T1 sequence: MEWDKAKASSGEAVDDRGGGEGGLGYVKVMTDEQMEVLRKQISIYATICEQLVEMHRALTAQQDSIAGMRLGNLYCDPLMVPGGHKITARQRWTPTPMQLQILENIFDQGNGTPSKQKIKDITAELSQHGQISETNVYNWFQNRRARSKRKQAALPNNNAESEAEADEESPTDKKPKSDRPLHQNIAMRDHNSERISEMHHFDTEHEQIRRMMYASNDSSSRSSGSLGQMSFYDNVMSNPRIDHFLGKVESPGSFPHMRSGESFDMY
Method in brief: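 Per-feature fluorescence intensity (arbitrary units), read on an Axon 4000B scanner, is the binding signal. Transcription factors carrying an N-terminal polyhistidine tag and DsRed fusion were expressed in E. coli BL21-CodonPlus and purified on Ni–NTA. A custom Agilent array, made double-stranded by primer extension with Cy5-dUTP and blocked with 2% BSA, was incubated with 200 nM protein in PBS, 2% BSA, salmon testes DNA and 50 µM zinc acetate at 25 °C for 1 h and then washed.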

Sequence | binding signal
CAGATTGTTATAATTACTCCTGTTGTTGTGAAGAGACCACCGGAGTCACCTAGTGCAG | 26000 fluorescence intensity (a.u.)
AATGAAGTATAATCAATTACTATGATGTTAATTATACTCCCGGAGTCACCTAGTGCAG | 24200 fluorescence intensity (a.u.)
TGCCATAAATTGTTTGTCATGGTATTGTAAAAGTCACTCTCGGAGTCACCTAGTGCAG | 8610 fluorescence intensity (a.u.)
CGTTGACATGAAGTTTTATTCAAGAGGCTCCATATTTTCACGGAGTCACCTAGTGCAG | 10400 fluorescence intensity (a.u.)
GTAATTAAAACTCAATGAATCACATGTTATTACCACCTCACGGAGTCACCTAGTGCAG | 3970 fluorescence intensity (a.u.)
AGAGACAGCGAATCAATTAGCCAATGCTAATAATTTATAACGGAGTCACCTAGTGCAG | 8160 fluorescence intensity (a.u.)
TATTGATTTCCACTATTCCCTTTGTAATCTGTGATTTCCACGGAGTCACCTAGTGCAG | 9240 fluorescence intensity (a.u.)
GAGAGATTGATGCATGAGCCGGCCAGGTCCAGCCAGATCGCGGAGTCACCTAGTGCAG | 28000 fluorescence intensity (a.u.)
ATTCGATGTGATAATTTTGTTTCGGAACTAAACAACCCCTCGGAGTCACCTAGTGCAG | 4150 fluorescence intensity (a.u.)
TTAATTAAAATTAAAACGATGTGACGGAAAGGTTACTCCCCGGAGTCACCTAGTGCAG | 26800 fluorescence intensity (a.u.)
CACCAGTGATTAGCTTGCCAGAGTGTCCAATCATATCGAACGGAGTCACCTAGTGCAG | 23700 fluorescence intensity (a.u.)
AGTATAATTATACTATATTTAGACTTTCCCAAGCCAGTTACGGAGTCACCTAGTGCAG | 10400 fluorescence intensity (a.u.)
ATGATTATGTATTATACTCCCTCCGTTTCACAATATAAGTCGGAGTCACCTAGTGCAG | 18300 fluorescence intensity (a.u.)
TATGGTTGTAATTGGTTGAGATAATATAACAAGTGATGAACGGAGTCACCTAGTGCAG | 11700 fluorescence intensity (a.u.)
ACTGATTTTGCTTCCCTTCACAAATCACAACCCTAACTACCGGAGTCACCTAGTGCAG | 16900 fluorescence intensity (a.u.)
TACTAAATTAGGCTATGGGTGGATGAGTGCTGAAAGTTATCGGAGTCACCTAGTGCAG | 7240 fluorescence intensity (a.u.)
TGTGATGAACAATTAGCATATGAGATTATCGGTTTTAATACGGAGTCACCTAGTGCAG | 11600 fluorescence intensity (a.u.)
AGCTTAATGTTCACTTGACTAATTAGTTCATTATTCCACACGGAGTCACCTAGTGCAG | 21900 fluorescence intensity (a.u.)
GCTAATGGGATGTACCATCTCAAGCCTTTGGACGGTAATGCGGAGTCACCTAGTGCAG | 4690 fluorescence intensity (a.u.)
TCCTTGCACAATCATTATTCCCTTTCTTGCTTACTTTCTTCGGAGTCACCTAGTGCAG | 3220 fluorescence intensity (a.u.)
ATGTCATCCAATCATACACTGTACGCGCACACACACATGACGGAGTCACCTAGTGCAG | 6740 fluorescence intensity (a.u.)

Sequence | binding signal
GCGTTAACTACTTTAATTGTGACATTTATCCCTATTTATACGGAGTCACCTAGTGCAG | 11800 fluorescence intensity (a.u.)
GGCAGTATAATTGAACGATGATATCGTACAATTCTTCCATCGGAGTCACCTAGTGCAG | 16800 fluorescence intensity (a.u.)
CTAAATTAATTTTCATATAGAATCTTGAAATGTTCAATATCGGAGTCACCTAGTGCAG | 20900 fluorescence intensity (a.u.)
AATGGTTGTGATTATGTTTCTCGTGCCAAATCTGTTCGCTCGGAGTCACCTAGTGCAG | 3400 fluorescence intensity (a.u.)
TCTGAATTATTCTATTACTGATATGTGGCAACTAATTATTCGGAGTCACCTAGTGCAG | 6630 fluorescence intensity (a.u.)
AATAATTAGAAATGTCAAGTTTCACTACATTCTATAAGCCCGGAGTCACCTAGTGCAG | 41500 fluorescence intensity (a.u.)
TTTCAATATAATATTTAATTATGAGAACTTCTGATCGAGTCGGAGTCACCTAGTGCAG | 8920 fluorescence intensity (a.u.)
ATATATTTTGATAATATGATTGTTGTGTTGAAAATACTAACGGAGTCACCTAGTGCAG | 3700 fluorescence intensity (a.u.)
CGAGCTTTGATTGTTTGTTAGTAGTAGTAATTTTCTCATGCGGAGTCACCTAGTGCAG | 32000 fluorescence intensity (a.u.)
ACGAGCACTGGTGATTTACCTGATTGGCCGGCCGATTGCTCGGAGTCACCTAGTGCAG | 22300 fluorescence intensity (a.u.)
TGTAAATTATATGGTGTATAAATACCGACGTGTCTAGACCCGGAGTCACCTAGTGCAG | 22700 fluorescence intensity (a.u.)
TTGATTGATCTTCGAACTTTAAACTTAGGCTGTGTTTAGTCGGAGTCACCTAGTGCAG | 44400 fluorescence intensity (a.u.)
AATGATTATTCTACTTTCCAATCGCCATTCCGGGAAAGCTCGGAGTCACCTAGTGCAG | 25400 fluorescence intensity (a.u.)
ACAAATTTTGCATAATCTCATCCTTGTGTACTTGAGCCTGCGGAGTCACCTAGTGCAG | 6460 fluorescence intensity (a.u.)
CAACCAACCACCAGAGGTGATTGACGAAGGATCGAGATCGCGGAGTCACCTAGTGCAG | 23600 fluorescence intensity (a.u.)
TATGATGGTCCAATTAAGCTTGAGATCGATAGCGAGCTATCGGAGTCACCTAGTGCAG | 5490 fluorescence intensity (a.u.)
TTTTGTGATTAAATTGTTATCAAATCTACAATTTTATGATCGGAGTCACCTAGTGCAG | 19800 fluorescence intensity (a.u.)
AAGAAATTATTAGTGTATGATTAATTAAGTTTCAATTATTCGGAGTCACCTAGTGCAG | 19200 fluorescence intensity (a.u.)
TTTAGTGATAAATTCTTAATTATTAATAGTAAGTGTGACACGGAGTCACCTAGTGCAG | 10900 fluorescence intensity (a.u.)
CATAATTATCCAAATTTACCACCCATCAACATCAAGAGAACGGAGTCACCTAGTGCAG | 22000 fluorescence intensity (a.u.)
CAATGATTGTATGACAGGTGGGACCATGCATTAATAATGTCGGAGTCACCTAGTGCAG | 46000 fluorescence intensity (a.u.)

Reference: article PMC7819943, “Rice protein-binding microarrays: a tool to detect cis-acting elements near promoter regions in rice”
